In the supplement of paper PMC8728848:
The other results are listed elsewhere or left out.

Legend:
Experiment in all cases: glycan array binding signal (z-score within array); higher = stronger binding
Details in all cases: glycan notation: IUPAC condensed, linker removed
Gal3S(b1-4)Glc6S = biological target: Gal3S(b1-4)Glc6S
Method in brief: (§1)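 Columns mapping to the same glycan were averaged after glycan names were converted to IUPAC-condensed notation. The data come from 3228 arrays in the Consortium for Functional Glycomics database, limited to those with an available protein sequence. Binding is reported as a within-array Z-score averaged across arrays of one protein sequence and across linkers.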

Gal3S(b1-4)GlcNAc = biological target: Gal3S(b1-4)GlcNAc
Method in brief: as §1

Gal3S(b1-4)GlcNAc6S = biological target: Gal3S(b1-4)GlcNAc6S
Method in brief: as §1

[1] = biological target: Gal3S(b1-4)[Fuc(a1-3)]Glc
Method in brief: as §1

[2] = biological target: Gal3S(b1-4)[Fuc(a1-3)]Glc6S
Method in brief: as §1

Gal3S4S(b1-4)GlcNAc = biological target: Gal3S4S(b1-4)GlcNAc
Method in brief: as §1

Gal3S6S(b1-4)GlcNAc = biological target: Gal3S6S(b1-4)GlcNAc
Method in brief: as §1

Gal3S6S(b1-4)GlcNAc6S = biological target: Gal3S6S(b1-4)GlcNAc6S
Method in brief: as §1

Gal4S(b1-4)GlcNAc = biological target: Gal4S(b1-4)GlcNAc
Method in brief: as §1

Gal4S6S(b1-4)GlcNAc = biological target: Gal4S6S(b1-4)GlcNAc
Method in brief: as §1

Gal6S(b1-4)Glc = biological target: Gal6S(b1-4)Glc
Method in brief: as §1

Gal6S(b1-4)Glc6S = biological target: Gal6S(b1-4)Glc6S
Method in brief: as §1

Gal6S(b1-4)GlcNAc = biological target: Gal6S(b1-4)GlcNAc
Method in brief: as §1

Gal6S(b1-4)GlcNAc6S = biological target: Gal6S(b1-4)GlcNAc6S
Method in brief: as §1

GalNAc(a1-3)Gal = biological target: GalNAc(a1-3)Gal
Method in brief: as §1

GalNAc(a1-3)GalNAc = biological target: GalNAc(a1-3)GalNAc
Method in brief: as §1

[3] = biological target: GalNAc(a1-3)GalNAc(a1-3)Gal(a1-4)Gal(b1-4)GlcNAc
Method in brief: as §1

GalNAc(b1-3)Gal = biological target: GalNAc(b1-3)Gal
Method in brief: as §1

[4] = biological target: GalNAc(b1-3)Gal(a1-4)Gal(b1-4)GlcNAc
Method in brief: as §1

[5] = biological target: GalNAc(b1-3)Gal(a1-4)Gal(b1-4)GlcNAc(b1-3)Gal(b1-4)Glc
Method in brief: as §1

[6] = biological target: GalNAc(b1-3)Gal(a1-6)Gal(b1-4)Glc
Method in brief: as §1

GalNAc(b1-3)GalNAc = biological target: GalNAc(b1-3)GalNAc
Method in brief: as §1

GalNAc(b1-4)GlcNAc = biological target: GalNAc(b1-4)GlcNAc
Method in brief: as §1

[7] = biological target: GalNAc(b1-4)GlcNAc(b1-2)Man(a1-3)[GalNAc(b1-4)GlcNAc(b1-2)Man(a1-6)]Man(b1-4)GlcNAc(b1-4)GlcNAc
Method in brief: as §1

Glc(a1-4)Glc = biological target: Glc(a1-4)Glc
Method in brief: as §1

Glc(a1-6)Glc(a1-6)Glc = biological target: Glc(a1-6)Glc(a1-6)Glc
Method in brief: as §1

Glc(b1-4)Glc = biological target: Glc(b1-4)Glc
Method in brief: as §1

Glc(b1-6)Glc = biological target: Glc(b1-6)Glc
Method in brief: as §1

GlcA(b1-3)Gal = biological target: GlcA(b1-3)Gal
Method in brief: as §1

GlcA(b1-3)GlcNAc = biological target: GlcA(b1-3)GlcNAc
Method in brief: as §1

GlcA(b1-6)Gal = biological target: GlcA(b1-6)Gal
Method in brief: as §1

[8] = biological target: GlcNAc(a1-3)Gal(b1-4)GlcNAc
Method in brief: as §1

[9] = biological target: GlcNAc(a1-4)Gal(b1-3)GlcNAc
Method in brief: as §1

[10] = biological target: GlcNAc(a1-4)Gal(b1-4)GalNAc
Method in brief: as §1

[11] = biological target: GlcNAc(a1-4)Gal(b1-4)GlcNAc
Method in brief: as §1

[12] = biological target: GlcNAc(a1-4)Gal(b1-4)GlcNAc(b1-3)Gal(b1-4)Glc
Method in brief: as §1

[13] = biological target: GlcNAc(a1-4)Gal(b1-4)GlcNAc(b1-3)Gal(b1-4)GlcNAc
Method in brief: as §1

[14] = biological target: GlcNAc(a1-4)Gal(b1-4)GlcNAc(b1-3)Gal(b1-4)GlcNAc(b1-3)Gal(b1-4)GlcNAc
Method in brief: as §1

[15] = biological target: GlcNAc(a1-4)Gal(b1-4)GlcNAc(b1-3)Gal(b1-4)[Fuc(a1-3)]GlcNAc(b1-3)Gal(b1-4)[Fuc(a1-3)]GlcNAc
Method in brief: as §1

[16] = biological target: GlcNAc(a1-6)Gal(b1-4)GlcNAc
Method in brief: as §1

[17] = biological target: GlcNAc(b1-2)Gal(b1-3)GalNAc
Method in brief: as §1

[18] = biological target: GlcNAc(b1-2)Man(a1-3)[GlcNAc(b1-2)Man(a1-6)]Man(b1-4)GlcNAc(b1-4)GlcNAc
Method in brief: as §1

[19] = biological target: GlcNAc(b1-2)Man(a1-3)[GlcNAc(b1-2)Man(a1-6)]Man(b1-4)GlcNAc(b1-4)[Fuc(a1-6)]GlcNAc
Method in brief: as §1

[20] = biological target: GlcNAc(b1-2)[GlcNAc(b1-4)]Man(a1-3)[GlcNAc(b1-2)Man(a1-6)]Man(b1-4)GlcNAc(b1-4)GlcNAc
Method in brief: as §1

GlcNAc(b1-3)Gal = biological target: GlcNAc(b1-3)Gal
Method in brief: as §1

B1: Tachylectin-2 (Tachypleus tridentatus), TAL2_TACTR (protein)
chain: VGGESMLRGVYQDKFYQGTYPQNKNDNWLARATLIGKGGWSNFKFLFLSPGGELYGVLNDKIYKGTPPTHDNDNWMGRAKKIGNGGWNQFQFLFFDPNGYLYAVSKDKLYKASPPQSDTDNWIARATEIGSGGWSGFKFLFFHPNGYLYAVHGQQFYKALPPVSNQDNWLARATKIGQGGWDTFKFLFFSSVGTLFGVQGGKFYEDYPPSYAHDNWLARAKLIGNGGWDDFRFLFF
glycan array binding signal (z-score) (Gal3S(b1-4)Glc6S): -0.346 | glycan array binding signal (z-score) (Gal3S(b1-4)GlcNAc): -0.359 | glycan array binding signal (z-score) (Gal3S(b1-4)GlcNAc6S): -0.245 | glycan array binding signal (z-score) [1]: -0.39 | glycan array binding signal (z-score) [2]: -0.29 | glycan array binding signal (z-score) (Gal3S4S(b1-4)GlcNAc): -0.318 | glycan array binding signal (z-score) (Gal3S6S(b1-4)GlcNAc): -0.17 | glycan array binding signal (z-score) (Gal3S6S(b1-4)GlcNAc6S): -0.393 | glycan array binding signal (z-score) (Gal4S(b1-4)GlcNAc): -0.344 | glycan array binding signal (z-score) (Gal4S6S(b1-4)GlcNAc): -0.23 | glycan array binding signal (z-score) (Gal6S(b1-4)Glc): -0.268 | glycan array binding signal (z-score) (Gal6S(b1-4)Glc6S): -0.353 | glycan array binding signal (z-score) (Gal6S(b1-4)GlcNAc): -0.203 | glycan array binding signal (z-score) (Gal6S(b1-4)GlcNAc6S): -0.339 | glycan array binding signal (z-score) (GalNAc(a1-3)Gal): 3.15 | glycan array binding signal (z-score) (GalNAc(a1-3)GalNAc): 4.41 | glycan array binding signal (z-score) [3]: 2.23 | glycan array binding signal (z-score) (GalNAc(b1-3)Gal): -0.345 | glycan array binding signal (z-score) [4]: -0.254 | glycan array binding signal (z-score) [5]: -0.295 | glycan array binding signal (z-score) [6]: -0.295 | glycan array binding signal (z-score) (GalNAc(b1-3)GalNAc): -0.255 | glycan array binding signal (z-score) (GalNAc(b1-4)GlcNAc): -0.293 | glycan array binding signal (z-score) [7]: -0.289 | glycan array binding signal (z-score) (Glc(a1-4)Glc): -0.247 | glycan array binding signal (z-score) (Glc(a1-6)Glc(a1-6)Glc): -0.334 | glycan array binding signal (z-score) (Glc(b1-4)Glc): -0.295 | glycan array binding signal (z-score) (Glc(b1-6)Glc): -0.359 | glycan array binding signal (z-score) (GlcA(b1-3)Gal): -0.353 | glycan array binding signal (z-score) (GlcA(b1-3)GlcNAc): -0.22 | glycan array binding signal (z-score) (GlcA(b1-6)Gal): -0.294 | glycan array binding signal (z-score) [8]: 3.09 | glycan array binding signal (z-score) [9]: 3.43 | glycan array binding signal (z-score) [10]: 2.81 | glycan array binding signal (z-score) [11]: 2.22 | glycan array binding signal (z-score) [12]: 3.7 | glycan array binding signal (z-score) [13]: 3.52 | glycan array binding signal (z-score) [14]: 3.96 | glycan array binding signal (z-score) [15]: 3.69 | glycan array binding signal (z-score) [16]: 4.99 | glycan array binding signal (z-score) [17]: -0.195 | glycan array binding signal (z-score) [18]: 0.696 | glycan array binding signal (z-score) [19]: -0.292 | glycan array binding signal (z-score) [20]: -0.295 | glycan array binding signal (z-score) (GlcNAc(b1-3)Gal): -0.318
